Laboratory results from the supplement of paper PMC11417369.
This is one part of the list.

Tested on: PF3D7_0420300 AP2 domain 1 (GST-tagged)
Assay: gcPBM binding intensity (ln(normalized median fluorescence intensity)); higher = stronger DNA binding
Procedure, shortened: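 DNA-binding domains from P. falciparum, fused to GST and produced in E. coli, were put on an Agilent 4 × 180k double-stranded probe array for 1 h in 1× PBS holding 1% milk, 0.2 mg/ml BSA, 0.5% salmon testes DNA and 0.03% Triton X-100. Probes were primer-extended, 36 bp long and drawn from intergenic genomic regions, with negative controls included. After Alexa488 anti-GST antibody detection and a 488 nm scan, binding intensity was set as the highest Masliner-normalised natural-log median intensity across replicate spots of either probe orientation.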

Sequence | gcPBM binding intensity (ln)
TTTTAATAAAAGCCCATGCACACCTTAGAAAGTTTT [CACACA_site346] | 9.06
GGAAACAAAAAATATATACACACTAATCATAAAAAA [CACACA_site7890] | 9.52
ATTAATATATTATCATGTACACAAAAATAATTTTAT [XGTACX_site7257] | 9.13
TAAAAATATATATGATTGCACTTAGGACAATATATA | 9.14
TATTCTCTCTTATGAACACACATTTTTATTTTCAAA [CACACA_site7554] | 9.43
AAGAAAAATATATAAATAAATAAATATATAAATATA [CACACA_negctrl_site836] | 9.12
AACTTGTATTTATACACACACACACTGTCTTTTTTT [CACACA_site7009] | 10.3
TAAAATTTTATAAAGGAACACACATTTTTTTTTTTT [CACACA_site8740] | 9.2
TATTTTAATATGTATACATGCATACCTACTCATACA [TGCATGCA_site779] | 9.05
TAGACAAAATATAATGCACACTATTATTTTTATTTA [CACACA_site5508] | 9.18
AAAAAAGTTGTATTTGCACACATAAAAAAAAGATAT [CACACA_site3839] | 9.53
AATTTAAAAATGGACACACACAAAAAATAATACTTA [CACACA_site250] | 9.89
GTATATTATATTGGGTGTACCATATATAATATAATC [XGTACX_site8579] | 9.19
AAAAATTAACAAAAGGTGCAATTTATTTATTAACGG | 9.26
TTATAAATAAAAAATACACACATATATATATATATA [CACACA_site207] | 9.3
ACTAAACTTTTATGTACACACATATAACATTAATTT [CACACA_site5276] | 9.62
TACAAAATGGGGAACACACACATATATATATATATA [CACACA_site3844] | 9.54
TTGGTACCTATAGATACACACATATATACCTATATA [CACACA_site5812] | 9.4
TACGTAAAAATAGGACGTACTTATTTAGAAACCATA [XGTACX_site2498] | 9.17
AAATATTATAGCACCACACACTTATTTTATTTATAT [CACACA_site7133] | 9.71
AGAAAGAAAGAATACACACACACATATATAAATATC [CACACA_site7716] | 10.2
ATTATCAATATGAAGGTGCATTTAAATAATATTTAC | 9.18
TATATTCTTTATAGGTGTACTTAATAAATAAAAAAT [XGTACX_site5378] | 9.02

Sequence | gcPBM binding intensity (ln)
TATATATATGTGTTTACACACAATAATGAATTAAAA [CACACA_site4659] | 9.4
TATGAACATAAATTTGCACACTGGATATAATATATA [CACACA_site2155] | 9.36
TATCTAGTTACTCCTTGTACATAATAAATGATTTTT [XGTACX_site5674] | 9.23
AAAAAAAAAAAATGTGTGCACATTATTTCAACTTAA | 9.32
TATATATATAATATTGCACACAAAATTAAAAGTAAA [CACACA_site7889] | 9.47
TATTTTATCTATTTGTGTACTTATATTTATGCAAAA [XGTACX_site1499] | 9.29
AAATTATTAAAAAAAAGTACATATATATATATATAT [XGTACX_site8313] | 8.93
ATAAATAATATATATACACACATATCTATACATATT [CACACA_site487] | 9.54
ATAATACACGATTATTTTCCCTTTATGTAAATATAT [CACACA_negctrl_site1107] | 9.3
ATCATCTATGTTATTACACACGTTATGTTATTATAA [CACACA_site5502] | 9.6
TTTAGATAATTCATTACACACATGTATATTTATATA [CACACA_site7602] | 9.46
TTTTTTTTTTTTTTATGTACGAAAGAAAAGCACATA [XGTACX_site8261] | 8.75
TAACGAATTTAAATTTGTACATATATAAATATATAA [XGTACX_site2168] | 9.02
TATGAAAAAAAAAATACACACACGAGTTGTTATACA [CACACA_site3188] | 9.48
AATGAAATATGGATGGGTACACATTTGATTTTATTA [XGTACX_site6155] | 9.23
ATATATATAAACATATGTACACATATATATAATACA [XGTACX_site1848] | 9.32
TGTATGTATAGAAACACACATACATATATATAATAT [CACACA_site1405] | 9.35
AAAAAAAATTAATTAGTGCAAAATATATACAAAATA [GTGCAC_site9762] | 9.41
TAAGAAAATATTTATGTATGCATGTCCTAATATTTC [TGCATGCA_site295] | 9.11
ATATAAAATATTAGTAGTACCATTAACAGTATTGTT [XGTACX_site5912] | 9.4
ATTAAGATGTATATATGTACATATTACATACATATA [XGTACX_site8657] | 9.12
AACAAGAAAAAAAAAAAAAAAAAAAAAAAATATTTT [XGTACX_negctrl_site428] | 9.11
ATATATATATTTTTATGAGGCATAAGTAATATTTTT [TGCATGCA_negctrl_site317] | 9.05

Sequence | gcPBM binding intensity (ln)
AATGTAATATAAATATGTACATAATATATATAATTA [XGTACX_site4762] | 9.36
TTTTTATTTTTTTAGTATACGTACTAGGTTTGTTCT [XGTACX_site645] | 9.37
ATATATTTATATATATGTACTTAAAACATTTCGATG [XGTACX_site328] | 9.01
ATTTGTTTATAGGCCATAAAATATTTAATTCATTTG [CACACA_negctrl_site1824] | 9.26
AGTATTATATTTGTATGTACGTAGTAATATATAAAA [XGTACX_site528] | 9.29
TTTTTCATAAATATATGTACATATATTTTATATAAC [XGTACX_site3402] | 9.13
ATTTATATTTATGATACACACACGTATATTCACATA [CACACA_site460] | 9.79
ATATAAAAAAAAGATGAAAAAAAAAATGAAAGAAAG [CACACA_negctrl_site1266] | 9.58
ATATATATAATATGATGTACATATTTATTTATATAT [XGTACX_site7333] | 9.09
AATGAAATAAAATAAAGTACATATATGTAAAAGTAG [XGTACX_site5650] | 9.87
TTTTTTTTTTTTTACACACACAAAATATTATCTGTA [CACACA_site5378] | 9.63
AATTGAAAAGAATGAAGTACACATTTGATGATACAT [XGTACX_site5182] | 9.38
AAAAATTCTTTTTCATCTATATGCAGAAAGAAAAAG [CACACA_negctrl_site1201] | 8.74
TAATTTTTATGAAGAAGTACAAAATCTACTATCATA [XGTACX_site4985] | 8.78
CTAAATAAAGTTAACACACACATAATATATATATGT [CACACA_site486] | 9.75
CATAAACTTTTTAACACACACTTATATATATATATA [CACACA_site4747] | 9.58
TACATCTGTAATGTGTGTACATATATGTATATATTT [XGTACX_site1805] | 9.38
TATAATAATATATATTGTACACACAAAATGGGAAAA [XGTACX_site3911] | 9.84
GAATTTATGAACTGTGCATGTAAAAAAAACAACAAA [TGCATGCA_site449] | 9.4
TATATGAAGCTATAGACACACATATAAAAATATAAT [CACACA_site4850] | 9.41
TTTTATTTTATAAAAATAAAAAAAAAATTATTACAA [TGCATGCA_negctrl_site508] | 8.77
AATTAAATAAATGTATGTACATAATAAATATGTATT [XGTACX_site4379] | 9.32
TGAAAATAGTTAATTTGTACACAAAAATTAAGAAAA [XGTACX_site5794] | 9.26

Sequence | gcPBM binding intensity (ln)
AAAGAAATATATACAAAAATATGAACAATTTATTAT [XGTACX_negctrl_site78] | 9.46
TTTTCGATGTTGGTAGGATGTATGGTACACGTAGTA [TGCATGCA_negctrl_site61] | 9.14
TATGAAAATATATATTGTACAGAATCTATAAAAAAT [XGTACX_site8030] | 9.23
GAAAATTTTTGGTGTACACAAAAAAATCCAAAAAAA [CACACA_site5042] | 9.14
TATGATTGTTTACGTTGTACAGCTGAATTGTTCTTA [XGTACX_site8114] | 9.34
GAATGCCTTGAAAATAGTACAATTAAGAAAAAATAC [XGTACX_site8002] | 9.19
AATAAAAGATCATTTATTCTTTTTTTTCTTTTTAAA [CACACA_negctrl_site1256] | 8.75
TAAATAAATTTATACACACACACACCGATATATATA [CACACA_site4622] | 10.1
AAAATACATAAACGTTCACACATTTAAGATAACGAG [CACACA_site5345] | 9.52
TATATATATAATATATGTACATATTAATTATGTATA [XGTACX_site5366] | 9.03
TGAATAAATATATATACACACATATATGTATATATT [CACACA_site1642] | 9.35
GAGTTTACACTCCCTTGTACATATTCATTTTTATTC [XGTACX_site5208] | 9.66
ATAATGGAGAAATAAGCATGCATTATATTATAAAAA [TGCATGCA_site325] | 9.24
AATTTCTATTTTGTGAGTACATACTCCTATTATATA [XGTACX_site3210] | 9.3
TAAAAGTTAATATAAACACACAAAAATTAATAAATA [CACACA_site6316] | 9.57
TGAATATTTCTATATACACACATATAAATATAAATA [CACACA_site7593] | 9.31
AAAAAAAAAAAAATGTAATTTTTTAATTATTTATAT [GTGCAC_negctrl_site436] | 8.79
CATATATTTTTGTATAGTACTTTTTTTATTCGTTTT [XGTACX_site1860] | 9.47
GATAAAATGGATGGATGTACATTATTTCCATATAAT [XGTACX_site7781] | 9.17
ATATTACTTCCTAAGTGTACAAGTAAGGAGAAAAAA [XGTACX_site3921] | 9.24
